Measured values: article PMC4336329 (PLoS ONE, 2015)
In all, about 310,000 compounds went through this assay and about 14,000 (4.5%) showed an effect of 50% or more. The effect is printed as a negative number. This is one part of the list.

Target: human ether-à-go-go-related gene (hERG) potassium channel (human, UniProt Q12809)
Assay: primary screen, population patch clamp on CHO cells stably expressing hERG
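Further: peak tail current of the secondary pulse compared with the same well before compound.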

Chain of human ether-à-go-go-related gene (hERG) potassium channel (Q12809 whole entry, looked up): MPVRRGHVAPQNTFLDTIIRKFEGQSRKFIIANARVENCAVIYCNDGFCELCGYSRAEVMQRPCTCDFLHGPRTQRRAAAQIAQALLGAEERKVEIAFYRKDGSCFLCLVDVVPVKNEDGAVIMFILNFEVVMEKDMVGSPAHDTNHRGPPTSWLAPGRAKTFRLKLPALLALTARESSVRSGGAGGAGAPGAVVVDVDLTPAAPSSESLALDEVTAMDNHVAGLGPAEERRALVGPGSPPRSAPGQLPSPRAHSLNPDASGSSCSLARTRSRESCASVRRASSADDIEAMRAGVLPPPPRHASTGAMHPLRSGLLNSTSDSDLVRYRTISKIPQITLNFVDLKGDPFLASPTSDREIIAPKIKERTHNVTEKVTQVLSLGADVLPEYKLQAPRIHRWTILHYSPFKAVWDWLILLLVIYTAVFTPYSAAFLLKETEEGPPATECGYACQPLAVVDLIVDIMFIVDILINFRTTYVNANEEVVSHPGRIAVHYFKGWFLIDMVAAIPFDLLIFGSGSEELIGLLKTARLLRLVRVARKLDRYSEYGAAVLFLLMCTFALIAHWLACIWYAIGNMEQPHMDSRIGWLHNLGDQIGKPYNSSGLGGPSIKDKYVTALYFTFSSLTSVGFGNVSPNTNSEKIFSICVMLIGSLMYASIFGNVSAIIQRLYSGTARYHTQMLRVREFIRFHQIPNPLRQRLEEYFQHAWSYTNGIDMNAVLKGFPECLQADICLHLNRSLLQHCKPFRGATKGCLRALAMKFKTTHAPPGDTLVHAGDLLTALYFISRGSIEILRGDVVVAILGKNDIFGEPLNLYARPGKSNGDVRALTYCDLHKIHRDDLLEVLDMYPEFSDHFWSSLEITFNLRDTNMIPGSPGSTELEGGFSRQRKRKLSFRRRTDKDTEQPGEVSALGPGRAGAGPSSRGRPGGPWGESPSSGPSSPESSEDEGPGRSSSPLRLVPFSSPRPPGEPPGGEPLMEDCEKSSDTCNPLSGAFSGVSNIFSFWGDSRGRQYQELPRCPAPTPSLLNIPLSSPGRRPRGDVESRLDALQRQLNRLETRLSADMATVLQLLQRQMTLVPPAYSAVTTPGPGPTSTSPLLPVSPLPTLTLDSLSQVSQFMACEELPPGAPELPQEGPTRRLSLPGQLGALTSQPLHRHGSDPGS

Point of comparison: `COc1ccccc1C(=O)NC(CCSC)C(=O)NCC(c1ccccc1OC)N1CCCC1` (stereo not drawn), “hERG current change (%, negative = inhibition) at 10uM” value -35.1%. Against it:
- CCOC(=O)c1cccc(NC(=O)C2CCN(S(=O)(=O)c3cnc[nH]3)CC2)c1 — higher, 1.65%
- Cc1cc(=O)oc2cc(N3C(=O)CC(Cc4ccccc4)C3=O)ccc12 (stereo not drawn) — higher, -5.82%
- Cc1c(OC(C)C(=O)NCc2ccccn2)ccc2c3c(c(=O)oc12)CCC3 (stereo not drawn) — higher, 10.4%
- Cc1nc(-c2nnc(SCC(=O)Nc3ccc(Cl)cc3)n2C)cs1 — higher, -1.79%
- Cc1nn(CCC#N)c(NC(=O)c2ccc(Cl)cc2)c1P(=O)(Nc1ccc([N+](=O)[O-])cc1)N1CCOCC1 (stereo not drawn) — higher, 9.02%
- CCOC(=O)C1CCCN(C(=O)Cc2ccc(C)cc2)C1 (stereo not drawn) — higher, 4.09%
- O=C(c1cccc(F)c1)N1CCc2ccccc2C1 — higher, -7.14%
- O=C(N/N=C/c1c[nH]c2ccccc12)c1ccc([N+](=O)[O-])cc1Cl — higher, 10.7%
- Cc1cccc(CN2CCCC(C(=O)c3ccc4c5c(cccc35)CC4)C2)n1 (stereo not drawn) — lower, -40.7%
- Cl.N[C@@H](Cc1ccc(O)cc1)c1nnc([C@H](CO)NC(=O)C2CCNCC2)o1 — higher, 3.1%
- Nc1nc(SCC(=O)NCCC(c2ccccc2)c2ccccc2)n[nH]1 — higher, 8.77%
- O=C(CN1C(=O)S/C(=C/c2cccs2)C1=O)N1CCOCC1 — higher, 10.6%
- CCOC(=O)C1=C(CSc2nc(CC)c(C)cc2C#N)OC(N)=C(C#N)C1c1ccccc1 (stereo not drawn) — higher, 2.52%
- Cc1ccc(C(=O)N2CCN(c3ccccc3O)CC2)cc1S(=O)(=O)N1CCCCC1 — lower, -43.2%
- CCCC(c1nnnn1CCOC)N(Cc1cc2cc(C)c(C)cc2[nH]c1=O)CC1CCCO1 (stereo not drawn) — higher, -10.3%
- Cc1c(NS(=O)(=O)c2ccc3c(c2)OCCO3)cccc1-c1nc2cccnc2s1 — higher, 1.11%
- Nc1c(C(=O)NCc2ccco2)c2nc3ccccc3nc2n1CCc1ccc(F)cc1 — higher, -6.34%
- O=C(OCC(=O)C12CC3CC(CC(C3)C1)C2)c1ccc(CO)cc1 — higher, -2.19%
- CCN(CC)CCNC(=O)c1cc2cc(Br)ccc2s1 — lower, -61.1%
- O=c1[nH]c(=O)n(-c2cccc(F)c2)c(O)c1/C=C1\C=Nc2ccccc21 — higher, 14%
- O=C(COc1ccccc1)NCC1COc2ccccc2O1 (stereo not drawn) — higher, 2.4%
- O=C(NCCCN1CCOCC1)C1CCN(S(=O)(=O)c2cccc(C(F)(F)F)c2)CC1 — higher, -9.45%
- COc1ccccc1C(=O)Nc1ccccn1 — higher, -0.129%
- Cc1ccccc1OCC(=O)N/N=C1\SCC(=O)N1Cc1ccccc1 — higher, -21.5%
- C=CCn1c(N2CCN(c3ccc(OC)cc3)CC2)nc2c1c(=O)n(C)c(=O)n2C — higher, -32.1%
- O=C(NCCC1=CCCCC1)c1cnsn1 — higher, 12.9%
- C=CCn1c(SCC(=O)NCCc2ccccc2)nc2c([nH]c3ccccc32)c1=O — higher, -3.29%
- CC(=O)Nc1ccc(S(=O)(=O)NC2Cc3ccccc3C2)cc1 — higher, 13.8%
- CC1CCc2c(C(=O)Oc3cccc(-n4cnnn4)c3)csc2C1 (stereo not drawn) — higher, -5.42%
- O=C(/C(=N\Nc1ccc(Br)cc1)Sc1nnnn1-c1ccccc1)c1ccccc1 — higher, 13.8%
- Cc1ccc(S(=O)(=O)CCC(=O)N2CCc3ccccc32)cc1 — higher, -16%
- O=C(Nc1ccc(F)c(F)c1)C1CCN(S(=O)(=O)c2cccs2)CC1 — lower, -53.7%
- CC(=O)N1c2ccc(S(=O)(=O)N(C)CC(=O)NC3CCCCC3C)cc2CC1C (stereo not drawn) — higher, 9.7%
- COc1ccc(OC)c(NC(=O)COC(=O)CCCN2C(=O)c3ccccc3C2=O)c1 — higher, 9.05%
- CNc1ncc(Cc2ccccc2)s1 — higher, -5.32%
- COc1ccccc1OCC(=O)NC1CCCCCC1 — higher, -8.54%
- C#CCOCCOCCOCCNc1nc(N2CCOCC2)nc(N2CCN(C(=O)[C@H](CCC(=O)O)n3cc(C(N)[C@H](C)CC)nn3)CC2)n1.Cl (stereo partly drawn) — higher, 12.3%
- Cc1cc(/C=C(\C#N)C(=O)N2CCOCC2)c(C)n1C1CCCC1 — higher, -2.31%
- O=C(CCCl)Nc1ccc(S(=O)(=O)NCc2ccco2)cc1 — higher, 3.41%
- O=C(COc1ccc(Br)cc1)N1CCNC1=O — higher, -0.826%
- COc1cc(C=O)ccc1OCC(=O)N1CCOCC1 — higher, 2.65%
- O=C(Nc1nnc(S(=O)(=O)N2CCCCCC2)s1)c1ccccc1F — higher, 6.76%
- CCCn1c(CCC(=O)O)ccc1-c1ccc(F)cc1 — higher, 8.49%
- Cn1c(S(=O)(=O)O)nc2ccccc21 — higher, 13.9%
- Clc1ccc(CCNCc2ccncc2)c(Cl)c1.O=C(O)C(=O)O — lower, -49.4%
- COc1ccc(N/C(=N/c2nc(C)cc(C)n2)NC(=O)Nc2ccc(Cl)c(Cl)c2)c(OC)c1 — higher, -7.96%
- C[C@@H](N)C(=O)NCC1CCC(C(=O)N[C@@H](Cc2ccccc2)C(=O)O)CC1.Cl (stereo partly drawn) — higher, 22.5%
- COCC(=O)N1CCC(Oc2ccc(C(=O)NC(C)c3nccs3)cc2)CC1 (stereo not drawn) — higher, 9.1%
- COc1cccc(C(C)NC(=O)c2ccncc2)c1 (stereo not drawn) — higher, 27.3%
- COc1ccccc1NC(=O)CSc1nnnn1Cc1ccccc1 — higher, -15.8%
- CCOC(=O)C1CCN(C(=O)CCCn2nc(CC)n3c(cc4occc43)c2=O)CC1 — higher, -19.6%
- Cc1c(O)c2c(=O)n(-c3ccccc3)c(-c3ccccc3)cc2oc1=O — higher, -1.68%
- CSc1sc(-c2nnc(SCC(=O)Nc3ccc(Cl)cc3)n2C)c2c1C=CCC2 — higher, 10.5%
- O=C(CCSCCC(=O)NCc1ccc(F)cc1)NCc1ccc(F)cc1 — higher, -21.3%
- COc1ccc(-n2cc(-c3ccccc3)c3c(N4CCOCC4)ncnc32)cc1 — higher, 22.5%
- CC(=O)NCC(=O)OCC(=O)c1ccc2ccccc2c1 — higher, 2.03%
- NCCCCC(N)c1cn([C@@H](CCC(=O)O)C(=O)N2CCNCC2)nn1 (stereo partly drawn) — higher, 17.4%
- Cc1ccc(N2CC(C(=O)Nc3ccc4c(c3)OCO4)CC2=O)cc1 (stereo not drawn) — higher, 9.48%
- CCCCOCCCNC(=S)Nc1ccc(S(=O)(=O)N2CCOCC2)cc1 — higher, -19.3%
- O=C(CN1CCN(Cc2ccccc2)CC1)NC(c1ccccc1)c1ccccc1.O=C(O)C(=O)O — lower, -59.8%
- COC(=O)/C(=C\c1cccnc1)NC(=O)c1ccc(OCc2ccccc2)cc1 — lower, -39.1%
- COc1ccc(C2NC(=O)c3n[nH]c(C)c32)c(OC)c1 (stereo not drawn) — higher, 4.64%
- COc1c(Cl)cccc1-c1cn2ccc(C)cc2n1 — higher, -15.2%
- CNS(=O)(=O)c1ccc(C(C)(C)C)cc1 — higher, 3.83%
- CCCC(C(=O)NCc1ccco1)N(CC1CCCO1)C(=O)CNS(=O)(=O)c1ccc(F)cc1 (stereo not drawn) — higher, 5.99%
- COc1ccc(CNC(=O)CSc2ncn[nH]2)cc1OC — higher, 17%
- COc1ccc(NC(=O)/C(C#N)=C\c2ccc(OCc3ccc(C(=O)O)cc3)c(OC)c2)cc1 — higher, 3.69%
- CCOC(=O)C1C(=O)C(C(=O)OCC)C(c2cccnc2)NC1c1cccnc1 (stereo not drawn) — higher, -21.8%
- COc1cccc(NC(=O)CN(C)C(=O)c2ccc3c(c2)S(=O)(=O)N=C2CCCCCN23)c1 — higher, 15%
- Cl.O=C(CCN1CCOCC1)NC12CC3CC(CC(C3)C1)C2 — higher, 12.8%
- O=S(=O)(c1ccc(F)cc1F)N1CCCN(c2ccc(C(F)(F)F)cn2)CC1 — higher, -18.7%
- Cc1nn(Cc2ccccc2)c(Cl)c1C(=O)NC(C)(C)C — higher, -0.618%
- COc1ccc(-c2nc3ccccc3c(=O)n2O)cc1 — higher, 25.5%
- CCc1nnc(NS(=O)(=O)c2ccc(NC(=S)NC(=O)/C=C/c3ccc(OC)cc3)cc2)s1 — higher, 13.2%
- CS(=O)(=O)N1CCCC(C(=O)NCCCN2CCC(Cc3ccccc3)CC2)C1 (stereo not drawn) — higher, -33.5%
- COc1ccc(CNS(=O)(=O)c2ccc(OC)cc2)cc1 — higher, 4.38%
- CC(CC(=O)NCC1CCCO1)c1ccccc1 (stereo not drawn) — higher, 18.5%
- COCc1nnc(NC(=O)CC(C)C)s1 — higher, 4.33%
- CCOc1cccc(-c2nnc3sc(COc4ccc(OC)cc4)nn23)c1 — higher, -9.55%
- Cc1ccc(CC(=O)OC(C)C(=O)NC2CCCCC2C)cc1C (stereo not drawn) — higher, 8.11%
- Cc1ccc(NS(=O)(=O)c2c(C)[nH]c(C)c2C(=O)N2CCCCC2)cc1C — higher, -5.1%
- CC(C)(C)OC(=O)[C@H](Cc1ccccc1)NC(=O)c1[nH]cnc1C(=O)Nc1cccc(Cl)c1 — higher, 11.6%
- CC(C)CNC(=O)c1ccccc1NC(=O)c1ccccc1N(C)S(=O)(=O)c1ccccc1 — higher, -12.2%
- CCOC(=O)C1(Cc2ccccc2)CCN(Cc2ccc3c(c2)OCCO3)CC1 — higher, -33.1%
- CCCS(=O)(=O)c1cn2cccc(N)c2c1S(=O)(=O)CCC — higher, -7.42%
- COc1ccc(NC(=O)C(NCC(C)C)c2ccccc2)cc1Cl (stereo not drawn) — higher, -0.652%
